Results taken from PubChem BioAssay AID1476 (National Center for Advancing Translational Sciences (NCATS), 2009).
The whole screen tested about 200,000 compounds, of which about 4,500 (2.2%) were called active. Inconclusive results, whose numbers are uncertain, are shown with a selection of clear calls. Calls come from the whole dose curve; as a rule, active = well fitted inhibition curve with a large enough effect; inconclusive = small, poorly fitted or top-dose-only effect, or effect the other way; inactive = flat fitted curve, though single readings scatter. Where the call is inconclusive, the potency comes from a doubtful curve fit.

biological target: Cruzipain (Trypanosoma cruzi) (UniProt P25779); assay: qHTS Assay for Promiscuous and Specific Inhibitors of Cruzain (without detergent); conditions: purified cruzain, Z-FR-AMC fluorescence, no detergent; note: nearly all actives have a fitted effect of over 40% in size;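 for max response, negative = inhibition: plate controls were enzyme without inhibitor for no effect and buffer without enzyme for full effect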
Sequence of UniProt P25779 (P25779 whole entry, looked up): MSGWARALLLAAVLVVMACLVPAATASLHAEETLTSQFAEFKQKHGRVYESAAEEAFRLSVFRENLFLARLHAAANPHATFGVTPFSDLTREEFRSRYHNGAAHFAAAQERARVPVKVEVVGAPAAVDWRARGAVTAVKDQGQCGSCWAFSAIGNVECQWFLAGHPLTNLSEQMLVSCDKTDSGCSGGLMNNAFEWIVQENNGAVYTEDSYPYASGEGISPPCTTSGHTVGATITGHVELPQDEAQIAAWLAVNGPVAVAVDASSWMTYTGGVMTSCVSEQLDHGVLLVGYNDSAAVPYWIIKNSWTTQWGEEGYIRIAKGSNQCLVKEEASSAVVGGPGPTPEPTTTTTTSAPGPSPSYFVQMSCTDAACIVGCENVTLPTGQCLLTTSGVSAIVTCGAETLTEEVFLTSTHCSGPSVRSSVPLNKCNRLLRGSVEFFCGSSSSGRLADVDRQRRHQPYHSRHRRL
Procedure, shortened: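 Detergent-free condition (0.00005% Triton X-100) in acetate buffer pH 5.5 with DTT. 1.5 nM enzyme and compound were pre-mixed 15 min, then 2 uM Z-FR-AMC substrate added; reaction progress from fluorescence change between first and third reads (60 s).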
Potency is the fitted concentration of half-maximal effect; tags give direction and shape of the fitted curve.

SMILES | Potency | max response, negative = inhibition
Cc1cccc(C(C)C)c1NC(=O)c1ccc(COc2ccc3c(C)cc(=O)oc3c2)cc1 | inconclusive: 7.94 µM [inhibitor, full curve, poor fit] | –
Cc1cccc(CNC(=O)CN2CC(C)Sc3ccccc32)c1 (stereo not drawn) | – | inactive: -1.91%
O=C(Nc1ccc(F)cc1)Nc1nnc(SCC(=O)N2CCCCC2)s1 | – | inactive: -4.86%
O=C(CSc1nnc(-c2cccs2)n1-c1cccc(Cl)c1)c1cccc2c1OCCO2 | active: 25.1 µM | –
C[C@H]1CC(C)(C)C[C@@](OCCN2CCCCC2)(c2ccccc2)C1 | – | inactive: 15.9%
COc1cccc(C(=O)C2CN(c3ccccc3)CC2c2ccc(Cl)cc2)c1 (stereo not drawn) | inconclusive: 25.1 µM [inhibitor, partial curve, poor fit] | –
CCOC(=O)c1c(NC(=O)CN2C(=O)NC(C)(c3ccc(Cl)cc3)C2=O)sc(C(=O)NC)c1C (stereo not drawn) | inconclusive: 31.6 µM [activator, single point] | –
CC(=O)N1c2ccccc2CC1C(=O)N1CCN(c2cc(Cl)ccc2C)CC1 (stereo not drawn) | inconclusive: 31.6 µM [activator, single point] | –
CCC(C(=O)Nc1ccc(F)cc1F)n1nc(-c2ccccc2)c2c(c1=O)CCCC2 (stereo not drawn) | – | inactive: -10.1%
Cc1nc2sc(C(c3ccco3)N3CCN(c4cccc(Cl)c4)CC3)c(O)n2n1 (stereo not drawn) | inconclusive: 31.6 µM [activator, single point] | –
COCCCNC(=O)C1CCN(C(=O)c2ccc(-n3ccc4ccccc43)s2)CC1 | inconclusive: 25.1 µM [activator, partial curve] | –
CC(=O)O[C@@]1(C(C)=O)CCC2C3C=C(Cl)C4=CC(=O)CC[C@]4(C)C3CC[C@]21C (stereo partly drawn) | inconclusive: 31.6 µM [activator, single point] | –
CC1CN(c2ccc(Oc3ccccc3)cc2)c2nc3c(c(=O)[nH]c(=O)n3C)n2C1 (stereo not drawn) | inconclusive: 39.8 µM [activator, single point] | –
Cc1cc(C)cc(N(CC(=O)Nc2ccc(C)cc2Cl)S(=O)(=O)c2c(C)[nH]c(=O)[nH]c2=O)c1 | inconclusive: 39.8 µM [activator, single point] | –
Cc1cccc(C)c1NC(=O)c1nc(SC(C)C)ncc1Cl | – | inactive: -7.25%
O=C(OCC(=O)N1CCN(C(=O)c2ccco2)CC1)c1ccccc1Cc1ccccc1 | inconclusive: 39.8 µM [activator, single point] | –
O=C(Nc1ccc(O)c(-c2nc3ccccc3o2)c1)c1ccc(-c2cccc(Cl)c2)o1 | – | inactive: 1.11%
CCOc1ccc2c(C)nc(NC3=NC(C)(C)C=C(C)N3)nc2c1 | active: 15.8 µM | –
CCOc1ccc(CCNC(=O)C2CCCN(c3nnc(-n4cccc4)s3)C2)cc1OCC (stereo not drawn) | inconclusive: 39.8 µM [activator, single point] | –
CC1CCN(S(=O)(=O)c2ccc3c(c2)oc(=O)n3CC(=O)N2CCCCC2)CC1 | – | inactive: -8.15%
O=C(COc1ccc2ccccc2c1Br)NNC(=O)Nc1ccccc1 | inconclusive: 25.1 µM [inhibitor, single point] | –

SMILES | Potency | max response, negative = inhibition
CCc1ccc(NC(=O)Cn2nnc(C(=O)NCCc3ccccc3)c2N)cc1 | inconclusive: 39.8 µM [inhibitor, single point] | –
CC(/C=N/NC(=O)c1ccc(CN2c3cccc4cccc(c34)S2(=O)=O)cc1)c1ccccc1 (stereo not drawn) | active: 10 µM | –
Cc1onc(-c2ccccc2)c1C(=O)NNC(=S)NC(=O)c1ccc(Cl)cc1Cl | inconclusive: 39.8 µM [inhibitor, single point] | –
CC(=O)NCCn1c(SCC(=O)OCc2ccccc2)nc2ccccc2c1=O | inconclusive: 39.8 µM [activator, single point] | –
CCOc1ccccc1NC(=O)Cn1c(=O)n(CCCCC(=O)NCCCOC)c(=O)c2ccccc21 | – | inactive: -12.3%
CCN(CC)c1ccc(/C=N/Nc2nc3ccccc3[nH]2)c(O)c1 | inconclusive: 39.8 µM [inhibitor, single point] | –
COc1ccccc1NC(=O)c1cc(S(=O)(=O)N2CCC3(CC2)OCCO3)ccc1F | inconclusive: 39.8 µM [activator, single point] | –
CCN(Cc1ccccc1)S(=O)(=O)c1ccc(C(=O)Nc2nnc(C3CC3)o2)cc1 | inconclusive: 25.1 µM [activator, single point] | –
Cc1cc2n(n1)CCCN2C(=O)Nc1ccc(C)c(Cl)c1 | – | inactive: 1.34%
Cc1ccc(C)c(N2CCN(S(=O)(=O)c3ccc(F)c(C(=O)Nc4ccc(Cl)cc4Cl)c3)CC2)c1 | inconclusive: 6.31 µM [inhibitor, single point] | –
COc1ccc(C2=CC(c3ccc(OC)c(OC)c3)n3nnnc3N2)c(OC)c1 (stereo not drawn) | inconclusive: 39.8 µM [activator, single point] | –
COc1ccc(OC)c(CCNC(=O)c2cc3cccc4c3n2CCS4)c1 | – | inactive: 7.22%
CCOC(=O)C1=C(c2ccccc2)NC(=S)NC1c1cc([N+](=O)[O-])ccc1OC (stereo not drawn) | active: 25.1 µM | –
O=C(COC(=O)CNC(=O)c1cccc(F)c1)NCCC1=CCCCC1 | active: 12.6 µM | –
CCN(CC)C(=O)c1sc2c(c1C)c(=O)n(Cc1ccccc1)c(=O)n2CC(=O)Nc1ccc(OC)cc1 | inconclusive: 39.8 µM [activator, single point] | –
CC(=O)Oc1cc2c(c(C)c1OC(C)=O)CC=C1[C@]3(C)CC[C@]4(C)CC[C@@](C)(C(=O)O)CC4[C@]3(C)CC[C@]12C (stereo partly drawn) | – | inactive: 9.59%
O=C(OCC(O)CO)c1ccccc1Nc1ccnc2cc(Cl)ccc12 (stereo not drawn) | inconclusive: 31.6 µM [inhibitor, single point] | –
O=C1C=C(c2ccccc2)C[C@H](c2cccs2)[C@H]1n1cnc([N+](=O)[O-])c1 | inconclusive: 39.8 µM [inhibitor, single point] | –
O=[N+]([O-])c1ccc(N/N=C/c2cn(-c3ccccc3)nc2-c2ccccc2)cc1 | inconclusive: 5.01 µM [inhibitor, full curve] | –
Cc1ccc(NC(=O)CCCN2C(=O)/C(=C/C=C/c3ccccc3)SC2=S)cc1 | active: 31.6 µM | –
O=C(Sc1nnc(-c2ccccc2)o1)N1c2ccccc2Sc2ccccc21 | inconclusive: 31.6 µM [inhibitor, single point] | –

SMILES | Potency | max response, negative = inhibition
Cc1cccc(OCC(=O)Nc2cccc(C(=O)OCc3cc(=O)n4c(C)csc4n3)c2)c1 | – | inactive: -5.34%
CN(C)S(=O)(=O)c1cccc(C(=O)C2=C3SC=C(c4ccccc4)N3CC2)c1 | active: 25.1 µM | –
COC(=O)c1ccc(Sc2ccccc2NS(=O)(=O)c2ccc(C)cc2)nc1 | inconclusive: 31.6 µM [inhibitor, single point] | –
O=c1ccc2cc(S(=O)(=O)NCc3ccc(Cl)cc3)ccc2[nH]1 | – | inactive: -17.3%
CC(=O)c1cnc2cc(-c3ccccc3)nn2c1C | inconclusive: 31.6 µM [inhibitor, single point] | –
COc1cccc(C2Nc3c(F)cc(Br)cc3C3C=CCC32)c1OC (stereo not drawn) | inconclusive: 39.8 µM [inhibitor, single point] | –
Brc1cc2c(cc1C1Nc3ccccc3C3C=CCC31)OCO2 (stereo not drawn) | inconclusive: 39.8 µM [inhibitor, single point] | –
O=C(Nc1nnc(-c2ccc(Cl)cc2)o1)c1nc2ccccc2s1 | inconclusive: 25.1 µM [activator, partial curve] | –
CSc1ccc(CNC(=O)c2ccc3c(c2)N(C)C(=O)C2CCCCN32)cc1 (stereo not drawn) | – | inactive: -4.63%
CCCCNC(=O)c1cnn2c(C)c(Cc3c(C)cc(C)cc3C)c(C)nc12 | – | inactive: -0.794%
CC1CCN(S(=O)(=O)c2ccc(NC(=O)CN3CCN(c4ccccc4)CC3)cc2)CC1 | inconclusive: 31.6 µM [inhibitor, single point] | –
COc1ccc(C(=O)Nc2cc(C)cc(C)c2)cc1S(=O)(=O)N1CCOCC1 | inconclusive: 39.8 µM [activator, single point] | –
Cc1cc(C)c(NC(=O)Cn2nnc(C(=O)NCc3cccs3)c2N)c(C)c1 | inconclusive: 31.6 µM [inhibitor, single point] | –
CC(=O)c1c(C)[nH]c(C(=O)OCC(=O)N2CCc3ccccc32)c1C | inconclusive: 25.1 µM [activator, single point] | –
CC(C)c1nc2sc3c(=O)[nH]cnc3c2c2c1CCC2 | inconclusive: 39.8 µM [inhibitor, single point] | –
CC(=O)N1CCCc2cc(S(=O)(=O)N3CCCC(C(=O)N4CCN(c5ccccc5F)CC4)C3)ccc21 (stereo not drawn) | inconclusive: 25.1 µM [activator, partial curve] | –
Cc1cccc(-n2cnc3c(c2=O)c2nc4ccccc4nc2n3Cc2ccco2)c1 | inconclusive: 39.8 µM [activator, single point] | –
Cc1ccc2c(c1)-c1c(cnn1CC(=O)N1CCN(c3cccc(C(F)(F)F)c3)CC1)CO2 | inconclusive: 6.31 µM [activator, full curve, poor fit] | –
COc1ccc(OC)c(NC(=O)c2cccc(S(=O)(=O)N(Cc3ccccc3)c3ccccc3OC)c2)c1 | inconclusive: 31.6 µM [inhibitor, single point] | –
Cc1nc2sc(C(c3ccco3)N3CCN(C(c4ccccc4)c4ccccc4)CC3)c(O)n2n1 (stereo not drawn) | inconclusive: 25.1 µM [activator, partial curve] | –
Cc1ccc(C(=O)OCC(=O)NC(=O)c2cccn2C)cc1 | inconclusive: 31.6 µM [inhibitor, single point] | –
